Results reported in PubChem BioAssay AID463173 (ICCB-Longwood Screening Facility, Harvard Medical School, 2010).
Out of some 52,000 compounds screened, about 4,300 (8.3%) were called active. Rule as the data show it: active = survival mostly below about 52% (no sharp cut-off); inactive = mostly above about 56%. Some of the results follow.

Each compound was assayed on DeltatarO mutant (assay: growth inhibition of S. aureus wild type versus tarO mutant, primary screen, teichoic acid synthesis inhibitors, RN4220, OD600 (AID 463173)). Settings: OD600, 18 h, active compounds read low, screened at 18.75 µg/mL (by protocol).
`Cc1ccc2c(c1)-c1c(c(C(=O)NCCc3ccccc3)nn1C)CS2` was tested, and the survival was active: 37%.
For `COc1cccc(CNC(=O)Cn2c(SCC(=O)Nc3ccc(F)cc3)nc3ccccc32)c1`, the survival was active: 8%.
In the case of `CCc1ccc2[nH]c(=O)c(C(c3nnnn3C3CCCC3)N(C)Cc3ccccc3)cc2c1` (stereo unspecified), the survival is reported as inactive: 96%.
With `CCCCN(CC)CCCNC(=O)C1CCN(c2nc3ccc(CC)cc3s2)CC1` the survival was inactive: 54%.
`CCCN(C(=O)Cc1c(C(=O)O)[nH]c2ccc(Cl)cc12)c1ccc(OCC)cc1` was tested, and the survival was active: 47%.
With `CC(C)COc1ccc(-c2nnn(CC(=O)N3C(C)CCCC3C)n2)cc1` (stereo unspecified) the survival was active: 69%.
For `O=C(NC1CC1)c1ccc(Cn2c(SCc3ccccc3F)nc3cccnc32)cc1`, the survival was inactive: 89%.
With `Cc1ccc2c(=O)cc(C(=O)Nc3ccc(S(=O)(=O)Nc4onc(C)c4C)cc3)oc2c1` the survival was inactive: 102%.
`Cc1cccc(-n2ncc(C(=O)N3CCN(C(=O)c4ccco4)CC3)c2C2CCN(C(=O)OC(C)(C)C)CC2)c1` was tested, and the survival was inactive: 62%.
In the case of `N#Cc1ccccc1NC(=O)Nc1ccccc1`, the survival is reported as inactive: 116%.
`COC(=O)c1c(NC(=O)c2nc(SCc3ccc(C)cc3)ncc2Cl)sc2c1CCCC2` was tested, and the survival was active: 46%.
For `CCNc1nc(NCC)nc(N(C#N)CC)n1`, the survival was inactive: 62%.
In the case of `CCCCCNS(=O)(=O)c1ccc(N2CCCCS2(=O)=O)cc1`, the survival is reported as inactive: 77%.
For `Cc1nn(CC(=O)O)c(C)c1C`, the survival was inactive: 81%.
With `COc1ccc(NC(=O)Cn2c(=O)n(CCC(=O)NCCc3ccc(OC)c(OC)c3)c(=O)c3ccccc32)cc1Cl` the survival was inactive: 68%.
With `CCCN1C(=O)CN(C2CCCCC2)C(=O)C1c1ccc(OC)c(OC)c1` (stereo unspecified) the survival was inactive: 75%.
For `CC(C)(C)c1ccc(C(=O)Nc2ccc(-c3nc4cc(Cl)ccc4o3)cc2)cc1`, the survival was inactive: 70%.
With `CCOc1ccc(NCc2cccn2-c2nnc(N3CCC(C(=O)NCc4ccc(C)cc4)CC3)s2)cc1` the survival was inactive: 74%.
For `NC(CSC1CCCCO1)C(=O)O` (stereo unspecified), the survival was inactive: 73%.
`Cc1nnc(N2CCN(c3ccccc3F)CC2)c2c1nnn2Cc1ccccc1Cl` was tested, and the survival was inactive: 90%.
With `COc1ccc2nc3oc(C(=O)N(C)c4ccc(Cl)cc4)cc3cc2c1` the survival was inactive: 85%.
`CCc1nnc(NC(=O)CSc2nccn2Cc2ccc(F)cc2)s1` was tested, and the survival was inactive: 131%.
`COc1ccc(N2CCN(CC(O)COc3ccc(C(C)C)c(C)c3)CC2)cc1` (stereo unspecified) was tested, and the survival was inactive: 66%.
With `COC(=O)C(C)Nc1n[nH]c(=S)[nH]c1=O` (stereo unspecified) the survival was inactive: 87%.
In the case of `Cc1ccc2c(c1)c(=O)c(C(=O)c1ccncc1)cn2CC(=O)Nc1ccc(C(C)C)cc1`, the survival is reported as inactive: 82%.
`COc1cccc(NC(=O)Cn2nc3c4ccccc4n(Cc4cccc(F)c4)cc-3c2=O)c1` was tested, and the survival was inactive: 91%.
